# About 2,200 (0.71%) of roughly 310,000 compounds showed an effect of 50% or more. The effect is printed as a negative number. Some of the results follow.
# Molecular target: human ether-à-go-go-related gene (hERG) potassium channel (human, UniProt Q12809)
# Experiment: primary screen, population patch clamp on CHO cells stably expressing hERG
# Chain of human ether-à-go-go-related gene (hERG) potassium channel (Q12809 whole entry, looked up): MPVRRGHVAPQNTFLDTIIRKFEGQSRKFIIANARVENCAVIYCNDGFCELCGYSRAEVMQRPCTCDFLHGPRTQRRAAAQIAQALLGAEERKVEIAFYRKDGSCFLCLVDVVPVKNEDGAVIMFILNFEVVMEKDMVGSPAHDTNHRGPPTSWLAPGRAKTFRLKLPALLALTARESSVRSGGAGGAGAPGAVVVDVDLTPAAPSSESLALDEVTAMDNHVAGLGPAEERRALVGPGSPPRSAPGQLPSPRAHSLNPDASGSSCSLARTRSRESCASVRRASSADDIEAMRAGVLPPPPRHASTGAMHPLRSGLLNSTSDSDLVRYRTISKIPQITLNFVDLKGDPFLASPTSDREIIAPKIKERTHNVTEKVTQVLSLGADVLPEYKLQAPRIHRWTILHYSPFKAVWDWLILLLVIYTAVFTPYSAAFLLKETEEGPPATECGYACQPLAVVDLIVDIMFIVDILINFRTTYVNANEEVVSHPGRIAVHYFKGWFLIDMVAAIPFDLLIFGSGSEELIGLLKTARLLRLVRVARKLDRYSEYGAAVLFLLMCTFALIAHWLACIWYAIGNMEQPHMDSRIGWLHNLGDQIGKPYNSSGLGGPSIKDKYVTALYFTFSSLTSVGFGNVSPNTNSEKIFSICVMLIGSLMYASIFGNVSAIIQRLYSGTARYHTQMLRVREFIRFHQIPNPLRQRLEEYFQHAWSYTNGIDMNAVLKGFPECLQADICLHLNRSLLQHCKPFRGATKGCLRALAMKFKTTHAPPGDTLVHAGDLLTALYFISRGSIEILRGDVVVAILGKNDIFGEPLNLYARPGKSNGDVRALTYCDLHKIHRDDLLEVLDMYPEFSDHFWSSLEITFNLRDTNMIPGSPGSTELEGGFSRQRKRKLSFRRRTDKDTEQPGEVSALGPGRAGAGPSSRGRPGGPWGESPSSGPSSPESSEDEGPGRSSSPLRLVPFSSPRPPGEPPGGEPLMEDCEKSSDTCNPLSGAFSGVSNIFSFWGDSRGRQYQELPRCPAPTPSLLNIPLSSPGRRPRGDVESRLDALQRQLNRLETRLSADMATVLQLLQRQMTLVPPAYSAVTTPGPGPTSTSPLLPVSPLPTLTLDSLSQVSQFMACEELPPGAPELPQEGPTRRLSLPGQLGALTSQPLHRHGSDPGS
row,SMILES,"hERG current change (%, negative = inhibition) at 1uM [%]"
1,CCOC(=O)N1CCC(N(C(=O)Nc2cccc(OC)c2)C(C)CC)CC1 (stereo not shown),4.63
2,O=C(CC(c1ccccc1)c1ccccc1O)NCCc1ccccc1 (stereo not shown),20.2
3,C=CCOc1ccc(C=Nc2ccc(Cl)cc2)c(O)c1,14.6
4,CC1CC(C)CN(C(=O)COc2ccc(-c3nnco3)cc2)C1 (stereo not shown),8.39
5,COc1ccc(/C(C)=N\n2cnnc2)cc1,10.6
6,O=C(CCNC(=O)c1ccc(Br)cc1)NCCCSc1ccccc1,-1.43
7,CC1=C(C(N)=O)C(c2ccccc2)n2nc(-c3cccc(C)c3)nc2N1 (stereo not shown),-29.2
8,Cc1ccc(C(=O)OCC(=O)N(CC(C)C)c2c(N)n(Cc3ccccc3)c(=O)[nH]c2=O)o1,5.54
9,CN(C)S(=O)(=O)c1ccc(NC(=O)COc2ncnc3sccc23)cc1,3.56
10,CCS(=O)(=O)c1ccc2c(c1)N(S(C)(=O)=O)CC(C(=O)NCc1ccccc1OC)O2 (stereo not shown),3.2
11,C=CCn1c(SCc2nc3ccccc3[nH]2)nnc1-c1ccccn1,-10.9
12,Cc1cc(NC(=O)COn2nnc3ccc(Cl)cc32)no1,4.24
13,Cc1ccc(NC(=O)CO/N=C/c2ccccc2C)c(C)c1,7.21
14,CCN1C(=O)CC(NCc2ccc(S(N)(=O)=O)cc2)C1=O (stereo not shown),19.5
15,CCCCCCC(=O)Nc1nc(C)c(-c2csc(Nc3ccc(Cl)cc3)n2)s1,11.8
16,O=C(Cc1cccs1)N1CCN(S(=O)(=O)c2ccc(F)cc2)CC1,11.1
17,CCCOc1ccc(N2C(=O)CC(N3CCN(CCN=CC4=C(O)CC(C)(C)CC4=O)CC3)C2=O)cc1 (stereo not shown),-4.68
18,C=CCOc1ccc(C2/C(=C(/O)c3ccc(OC)cc3)C(=O)C(=O)N2CCN2CCNCC2)cc1 (stereo not shown),7.98
19,COC(=O)CNC(c1ccccc1)c1cc(C)ccc1NC(=O)c1cccc(Cl)c1 (stereo not shown),-4.69
20,CC(=O)N1CCN(C(=O)CC2OC(=O)c3ccccc32)CC1 (stereo not shown),11.4
21,CCc1cccc(Nc2cnn(C34C[C@@H]5C[C@@H](CC(CC(=O)O)(C5)C3)C4)c(=O)c2Cl)c1,15.3
22,Cc1ccc(CNC(=O)COc2ccc(S(=O)(=O)NC(C)C)cc2)cc1,7.14

row,SMILES,"hERG current change (%, negative = inhibition) at 1uM [%]"
1,N#Cc1cccc(C(=O)OCC(=O)NCc2ccco2)c1,13.5
2,O=C1NC(=O)/C(=C\c2ccc(OCc3cccc([N+](=O)[O-])c3)cc2)N1,11.3
3,Cc1ccc(-c2nnn(CC(=O)N3c4ccccc4CCc4ccccc43)n2)cc1,7.38
4,CCOc1ccccc1NC(=O)NC1(C(=O)N2CCN3CCCC3C2)CCCCC1 (stereo not shown),9.04
5,CC(=O)c1cccc(NC(=S)NNC(=O)c2ccc(C)c([N+](=O)[O-])c2)c1,15
6,O=C1Nc2ccccc2C1(O)c1ccccc1 (stereo not shown),13.5
7,COc1cccc(/C=N/Nc2ccccc2C(=O)O)c1O,14
8,COc1ccc(S(=O)(=O)N2CCC(C(=O)NCCN3CCOCC3)CC2)cc1C,14.8
9,COc1ccc(OC)c(NC(=O)CSc2ncccc2C(=O)O)c1,13.7
10,O=C(CN1C(=O)c2cccc3cccc(c23)C1=O)N1CCN(Cc2ccc3c(c2)OCO3)CC1,-12.2
11,Cc1cccc(NC(=O)c2ccc(N3CCCCC3)c([N+](=O)[O-])c2)n1,21.3
12,CCC(C)(C)c1ccc(O)cc1,7.05
13,CC(C)(C)c1ccc(C(=O)Nc2cnccn2)cc1,-12.8
14,CC(C)(C)NC(=O)Cn1c(SCC(=O)NCc2cccs2)nc2ccccc21,6.57
15,CN1CCN(C(=O)c2ccc3c(=O)n4c(nc3c2)CCCCC4)CC1,3.06
16,CC(C)(C)NC(=O)C(c1ccco1)N(C(=O)Cn1nnc(-c2ccc(F)cc2)n1)c1ccccc1 (stereo not shown),-6.47
17,CCOc1cc(C)ccc1OCc1nnc(SCC(=O)Nc2cccc(C(=O)O)c2)n1-c1ccccc1,16.4
18,COc1cccc(NC(=O)CN(C)C(=O)CN2C(=O)NC(C)(c3ccc(C)cc3)C2=O)c1 (stereo not shown),14.3
19,CCOC(=O)c1c(-c2ccccc2)oc2ccc(OC)cc12,9.4
20,CC(C)CCc1noc(CN(CC2CCC2)CC2CCCO2)n1 (stereo not shown),10.7
21,COc1ccc(OC)c(N=c2oc3cc(O)ccc3cc2C(N)=O)c1,3.95

# From publication PMC4336329 (PLoS ONE, 2015)
